{"source": "patent US20190125790A1", "about": "“USE OF HYPOCHLOROUS ACID AS A TOPICAL ANTIMICROBIAL” (BIIOSMART TECHNOLOGIES LLC, priority 2016, published 2019)", "system": "most common contaminants and pathogens found in skin and genital area", "experiment": "Efficacy on contact as genital skin cleanser, summary of Table 1", "assay_type": "cell-based", "details": "0.01% aqueous solution; at 30 seconds", "data": [{"smiles": "OCl", "note": "[HOCl, hypochlorous acid]", "values": [{"measurement": "efficacy on contact", "value": 99.99, "unit": "%"}]}]}
